Sequences and labels used below:
B1: GPR68, Q15743 (parent)
chain: MGNITADNSSMSCTIDHTIHQTLAPVVYVTVLVVGFPANCLSLYFGYLQIKARNELGVYLCNLTVADLFYICSLPFWLQYVLQHDNWSHGDLSCQVCGILLYENIYISVGFLCCISVDRYLAVAHPFRFHQFRTLKAAVGVSVVIWAKELLTSIYFLMHEEVIEDENQHRVCFEHYPIQAWQRAINYYRFLVGFLFPICLLLASYQGILRAVRRSHGTQKSRKDQIQRLVLSTVVIFLACFLPYHVLLLVRSVWEASCDFAKGVFNAYHFSLLLTSFNCVADPVLYCFVSETTHRDLARLRGACLAFLTCSRTGRAREAYPLGAPEASGKSGAQGEEPELLTKLHPAFQTPNSPGSGGFPTGRLA

Variants of B1 are the subject of data set [1]. Kind of data set: cAMP reporter score (Enrich2 score, wild type = 0); higher = more signal; HEK293T, FACS bins.
Data set [2] covers variants of B1. Kind of data set: surface expression score (Enrich2 score, wild type = 0); higher = more signal; HEK293T, FACS bins.

Scores with a large standard error are left out. The source holds two more conditions with little spread; they are left out. In variant names, del marks residues removed and ins residues inserted between the two positions. For some of these results: The data file names ogerin without a concentration.

For L101_E103del, the cAMP reporter score was -1.24 in data set [1] (pH 5.5); -2.78 in data set [1] (pH 6, modulator: ogerin); -0.836 in data set [1] (pH 6.5, modulator: ogerin). In data set [2], the surface expression score was -1.52.

Take G90_D91insGSG: the cAMP reporter score is -1.61 in data set [1] (pH 5.5); -1.03 in data set [1] (pH 6); -1.11 in data set [1] (pH 6, modulator: ogerin); -1.3 in data set [1] (pH 6.5, modulator: ogerin). Besides, the surface expression score in data set [2] was -1.15.

For C94I, the cAMP reporter score was -1.88 in data set [1] (pH 5.5) and -0.962 in data set [1] (pH 6, modulator: ogerin). Also, in data set [2], the surface expression score was -0.417.

Consider C94W, for which the cAMP reporter score in data set [1] (pH 5.5) is -1.1; in data set [1] (pH 6) it was -0.228; in data set [1] (pH 6, modulator: ogerin), -1.5; in data set [1] (pH 6.5, modulator: ogerin), -2.35. Moreover, the surface expression score in data set [2] was 0.

Consider C94E, for which the cAMP reporter score is -1.44 in data set [1] (pH 5.5); -3.09 in data set [1] (pH 6, modulator: ogerin); -2.12 in data set [1] (pH 6.5, modulator: ogerin). Further, the surface expression score in data set [2] was -3.19.

C94M: the cAMP reporter score is -1.46 in data set [1] (pH 5.5); -1.46 in data set [1] (pH 6); -1.88 in data set [1] (pH 6, modulator: ogerin); -1.66 in data set [1] (pH 6.5, modulator: ogerin). Besides, the surface expression score in data set [2] was -1.51.

Consider C94P, for which the cAMP reporter score was -0.733 in data set [1] (pH 5.5); -0.349 in data set [1] (pH 6); -1.97 in data set [1] (pH 6, modulator: ogerin); -1.72 in data set [1] (pH 6.5, modulator: ogerin). Also, the surface expression score in data set [2] is -1.51.

For C94T, the cAMP reporter score in data set [1] (pH 5.5) is -1.43; in data set [1] (pH 6), -0.612; in data set [1] (pH 6, modulator: ogerin), -1.73; in data set [1] (pH 6.5, modulator: ogerin), -1.33. The surface expression score in data set [2] is -1.58.

Take C94H: the cAMP reporter score is -0.19 in data set [1] (pH 5.5) and -0.11 in data set [1] (pH 6.5, modulator: ogerin). Moreover, in data set [2], the surface expression score is -0.683.

With C94Q, the cAMP reporter score in data set [1] (pH 5.5) was -1.75; in data set [1] (pH 6), -0.356; in data set [1] (pH 6, modulator: ogerin), -1.38; in data set [1] (pH 6.5, modulator: ogerin) it was -1.4. Moreover, in data set [2], the surface expression score was -1.13.

On to C94K, for which the cAMP reporter score in data set [1] (pH 5.5) was -1.76; in data set [1] (pH 6) it was -0.456; in data set [1] (pH 6, modulator: ogerin), -1.29; in data set [1] (pH 6.5, modulator: ogerin), 1.01. For the same variant, the surface expression score in data set [2] was -0.554.

Turning to C94R, the cAMP reporter score in data set [1] (pH 5.5) is -1.74; in data set [1] (pH 6), -1.52; in data set [1] (pH 6, modulator: ogerin), -1.77; in data set [1] (pH 6.5, modulator: ogerin), -1.37. For the same variant, in data set [2], the surface expression score was determined as 0.203.

In the case of C94S, the cAMP reporter score in data set [1] (pH 5.5) was -1.58; in data set [1] (pH 6), -0.785; in data set [1] (pH 6.5, modulator: ogerin) it was -0.272. In addition, the surface expression score in data set [2] was -1.1.

In the case of C94A, the cAMP reporter score in data set [1] (pH 5.5) is -0.766; in data set [1] (pH 6.5, modulator: ogerin), -1.34. The surface expression score in data set [2] was -0.225.

As to C94G, the cAMP reporter score is -1.12 in data set [1] (pH 5.5); -0.477 in data set [1] (pH 6); -1 in data set [1] (pH 6, modulator: ogerin); -1.65 in data set [1] (pH 6.5, modulator: ogerin).

With C94F, the cAMP reporter score in data set [1] (pH 5.5) is -1.89; in data set [1] (pH 6) it was -1.41; in data set [1] (pH 6, modulator: ogerin), -1.74; in data set [1] (pH 6.5, modulator: ogerin), -1.67. The surface expression score in data set [2] was -0.911.

For C94N, the cAMP reporter score is -3.38 in data set [1] (pH 5.5); -2.72 in data set [1] (pH 6, modulator: ogerin); -1.28 in data set [1] (pH 6.5, modulator: ogerin). Besides, the surface expression score in data set [2] was -0.425.

On to C94Y, for which the cAMP reporter score in data set [1] (pH 5.5) is -0.957; in data set [1] (pH 6), -0.675; in data set [1] (pH 6, modulator: ogerin), -1.06; in data set [1] (pH 6.5, modulator: ogerin), -0.799. For the same variant, the surface expression score in data set [2] was -0.581.

Consider H89del, for which the cAMP reporter score was -1.73 in data set [1] (pH 5.5); -1.28 in data set [1] (pH 6); -1.29 in data set [1] (pH 6, modulator: ogerin); -1.66 in data set [1] (pH 6.5, modulator: ogerin). Further, the surface expression score in data set [2] is -1.72.

As for E103_N104insGSG, the cAMP reporter score in data set [1] (pH 5.5) was 0.201; in data set [1] (pH 6, modulator: ogerin), -1.36; in data set [1] (pH 6.5, modulator: ogerin), -0.728.

With C97_G98insG, the cAMP reporter score in data set [1] (pH 5.5) was -1.85; in data set [1] (pH 6), -1.26; in data set [1] (pH 6, modulator: ogerin), -2.37; in data set [1] (pH 6.5, modulator: ogerin) it was -1.27. In addition, the surface expression score in data set [2] was -2.13.

In the case of S88del, the cAMP reporter score in data set [1] (pH 5.5) was -1.54; in data set [1] (pH 6) it was -1.04; in data set [1] (pH 6, modulator: ogerin) it was -0.992; in data set [1] (pH 6.5, modulator: ogerin), -0.391. Further, the surface expression score in data set [2] was -0.929.

With E103_N104insGS, the cAMP reporter score in data set [1] (pH 5.5) is 0.027; in data set [1] (pH 6.5, modulator: ogerin), -0.189. Also, in data set [2], the surface expression score was -1.95.

As for S88Q, the cAMP reporter score in data set [1] (pH 5.5) was 1.19; in data set [1] (pH 6), 0.347; in data set [1] (pH 6.5, modulator: ogerin) it was 0.051. Besides, the surface expression score in data set [2] was determined as 1.28.

Take S88H: the cAMP reporter score is -1.38 in data set [1] (pH 5.5); -0.581 in data set [1] (pH 6); 1.49 in data set [1] (pH 6.5, modulator: ogerin). Also, the surface expression score in data set [2] was determined as 0.516.

Regarding S88T, the cAMP reporter score in data set [1] (pH 5.5) was determined as 0.421; in data set [1] (pH 6), 2.23; in data set [1] (pH 6, modulator: ogerin) it was 0.805. In addition, the surface expression score in data set [2] was -0.372.

Consider S88M, for which the cAMP reporter score in data set [1] (pH 5.5) is 1.3; in data set [1] (pH 6), -0.337; in data set [1] (pH 6, modulator: ogerin), 1.01; in data set [1] (pH 6.5, modulator: ogerin), -0.122. The surface expression score in data set [2] is 1.51.

As to S88L, the cAMP reporter score in data set [1] (pH 5.5) was -0.106; in data set [1] (pH 6), -0.279; in data set [1] (pH 6, modulator: ogerin), -0.309; in data set [1] (pH 6.5, modulator: ogerin), -1.59. In addition, the surface expression score in data set [2] is 0.225.

As for S88P, the cAMP reporter score stood at 0.816 in data set [1] (pH 5.5); 0.632 in data set [1] (pH 6, modulator: ogerin); 0.826 in data set [1] (pH 6.5, modulator: ogerin). Further, the surface expression score in data set [2] is 0.58.

Turning to S88K, the cAMP reporter score was 0.594 in data set [1] (pH 5.5); 0.94 in data set [1] (pH 6); 0.476 in data set [1] (pH 6, modulator: ogerin); -0.022 in data set [1] (pH 6.5, modulator: ogerin). Moreover, the surface expression score in data set [2] was 1.3.

Regarding S88V, the cAMP reporter score was 1.17 in data set [1] (pH 5.5); 1.97 in data set [1] (pH 6); 0.719 in data set [1] (pH 6, modulator: ogerin); 2.18 in data set [1] (pH 6.5, modulator: ogerin). In addition, the surface expression score in data set [2] came out at 0.558.

Regarding S88Y, the cAMP reporter score in data set [1] (pH 5.5) was -0.872; in data set [1] (pH 6), -1.02; in data set [1] (pH 6, modulator: ogerin), -0.934; in data set [1] (pH 6.5, modulator: ogerin), -1.18. In data set [2], the surface expression score worked out at 0.672.

In the case of S88R, the cAMP reporter score in data set [1] (pH 5.5) was 0.329; in data set [1] (pH 6, modulator: ogerin) it was 0.038; in data set [1] (pH 6.5, modulator: ogerin), -0.786. In data set [2], the surface expression score was found to be 1.44.

As to C94_Q95insG, the cAMP reporter score was -1.48 in data set [1] (pH 5.5) and -1.37 in data set [1] (pH 6, modulator: ogerin). Moreover, the surface expression score in data set [2] was -1.79.
